The values that follow come from paper PMC12162846, “Tripartite motif-containing protein 26 promotes colorectal cancer growth by inactivating p53” (Cell Death and Differentiation, 2025).

In this assay the target is T1, Purified TRIM26 (Flag-TRIM26 digested by PreScission Protease) (UniProt Q12899 1-539).
T1 construct: TRIM26; domain limits printed up to aa539; The legend says that Flag-TRIM26 was digested by PreScission Protease; how it was made and purified may stand in the Supplementary Information; source: purified or protein lysates containing TRIM26
T1 sequence (looked up): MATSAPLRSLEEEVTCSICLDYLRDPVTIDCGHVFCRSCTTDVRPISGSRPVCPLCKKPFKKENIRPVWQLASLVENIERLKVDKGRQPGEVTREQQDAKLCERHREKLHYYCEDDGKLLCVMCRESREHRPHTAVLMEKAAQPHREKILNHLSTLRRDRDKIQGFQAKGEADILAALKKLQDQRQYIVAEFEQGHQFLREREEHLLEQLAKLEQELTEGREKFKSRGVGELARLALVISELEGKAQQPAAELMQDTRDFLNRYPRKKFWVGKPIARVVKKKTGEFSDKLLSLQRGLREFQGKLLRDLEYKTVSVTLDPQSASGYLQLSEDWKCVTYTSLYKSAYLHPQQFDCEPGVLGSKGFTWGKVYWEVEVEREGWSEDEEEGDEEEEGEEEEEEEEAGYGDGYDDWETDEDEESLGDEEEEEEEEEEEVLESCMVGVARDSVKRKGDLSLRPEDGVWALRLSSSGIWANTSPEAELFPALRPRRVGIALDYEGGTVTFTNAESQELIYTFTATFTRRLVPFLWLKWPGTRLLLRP
Put plainly: pull-down; GST-p53 or GST-MDM2 and their fragments on beads, incubated with TRIM26 at RT for 40 min; bound TRIM26 detected by Western blot with TRIM26 antibody. The following applies: both partners purified. Background: Immunoblotting shows a protein as a band on a membrane.

B1: GST-p53 C-terminal domain ([…]) (domain or fragment)
chain: not shown
notes: also called the C-terminus of p53; source: purified GST-fusion protein on beads
Regarding B1, the binding result is “binds”.
